Data reported in the supplement of paper PMC9542798.

Columns and labels:
Assay in all cases: minimum inhibitory concentration
[1] = compound: NC[C@@H]1O[C@H](O[C@H]2[C@@H](O)[C@H](O[C@@H]3[C@@H](O)[C@H](N)C[C@H](N)[C@H]3O[C@H]3O[C@H](CN)[C@@H](O)[C@H](O)[C@H]3N)O[C@@H]2CO)[C@H](N)[C@@H](O)[C@@H]1O [Neomycin]
Experimental: (§1)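 Broth microdilution MIC per ISO 10932 on precoated VetMIC Lact-1 plates (tylosin, vancomycin and ampicillin plates prepared manually) against lactic acid bacteria and bifidobacteria isolates. Plates were read visually after 48 h anaerobic incubation (bifidobacteria 72 h; enterococci and staphylococci 24 h aerobic) at species-specific temperatures of 30 or 37 °C. Values prefixed with < or > are outside the tested dilution range.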

[2] = compound: CNC(C)C1CCC(N)C(OC2C(N)CC(N)C(OC3OCC(C)(O)C(NC)C3O)C2O)O1 [Gentamicin]
Experimental: as §1

[3] = compound: NC[C@H]1O[C@H](O[C@H]2[C@H](O)[C@@H](O[C@H]3O[C@H](CO)[C@@H](O)[C@H](N)[C@H]3O)[C@H](N)C[C@@H]2N)[C@H](O)[C@@H](O)[C@@H]1O [Kanamycin]
Experimental: as §1

[4] = compound: O=C(N[C@H](CO)[C@H](O)c1ccc([N+](=O)[O-])cc1)C(Cl)Cl [Chloramphenicol]
Experimental: as §1

[5] = compound: CC[C@H]1OC(=O)[C@H](C)[C@@H](O[C@H]2C[C@@](C)(OC)[C@@H](O)[C@H](C)O2)[C@H](C)[C@@H](O[C@@H]2O[C@H](C)C[C@H](N(C)C)[C@H]2O)[C@](C)(O)C[C@@H](C)C(=O)[C@H](C)[C@@H](O)[C@]1(C)O [Erythromycin]
Experimental: as §1

[6] = compound: CN[C@@H]1[C@H](O[C@H]2[C@H](O[C@H]3[C@H](O)[C@@H](O)[C@H](N=C(N)N)[C@@H](O)[C@@H]3N=C(N)N)O[C@@H](C)[C@]2(O)C=O)O[C@@H](CO)[C@H](O)[C@H]1O [Streptomycin]
Experimental: as §1

[7] = compound: CC[C@H]1OC(=O)C[C@@H](O)[C@H](C)[C@@H](O[C@@H]2O[C@H](C)[C@@H](O[C@H]3C[C@@](C)(O)[C@@H](O)[C@H](C)O3)[C@H](N(C)C)[C@H]2O)[C@@H](CC=O)C[C@@H](C)C(=O)/C=C/C(C)=C/[C@@H]1CO[C@@H]1O[C@H](C)[C@@H](O)[C@@H](OC)[C@H]1OC [Tylosin]
Experimental: as §1

[8] = compound: CCC[C@@H]1C[C@@H](C(=O)N[C@@H]([C@H]2O[C@H](SC)[C@H](O)[C@@H](O)[C@H]2O)[C@H](C)Cl)N(C)C1 [Clindamycin]
Experimental: as §1

[9] = compound: CC1(C)S[C@@H]2[C@H](NC(=O)[C@H](N)c3ccccc3)C(=O)N2[C@H]1C(=O)O [Ampicillin]
Experimental: as §1

[10] = compound: CN[C@H](CC(C)C)C(=O)N[C@H]1C(=O)N[C@@H](CC(N)=O)C(=O)N[C@H]2C(=O)N[C@H]3C(=O)N[C@H](C(=O)N[C@H](C(=O)O)c4cc(O)cc(O)c4-c4cc3ccc4O)[C@H](O)c3ccc(c(Cl)c3)Oc3cc2cc(c3O[C@@H]2O[C@H](CO)[C@@H](O)[C@H](O)[C@H]2O[C@H]2C[C@](C)(N)[C@H](O)[C@H](C)O2)Oc2ccc(cc2Cl)[C@H]1O [Vancomycin]
Experimental: as §1

[11] = compound: CN(C)[C@@H]1C(O)=C(C(N)=O)C(=O)[C@@]2(O)C(O)=C3C(=O)c4c(O)cccc4[C@@](C)(O)[C@H]3C[C@@H]12 [Tetracycline]
Experimental: as §1
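Also: isolates derived from commercial starter, protective, probiotic or feed-additive cultures, from fermented products, from human gut mucosa or feces, and from human milk or colostrum.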

Test System | minimum inhibitory concentration [1] [µg/mL] | minimum inhibitory concentration [2] [µg/mL] | minimum inhibitory concentration [3] [µg/mL] | minimum inhibitory concentration [4] [µg/mL] | minimum inhibitory concentration [5] [µg/mL] | minimum inhibitory concentration [6] [µg/mL] | minimum inhibitory concentration [7] [µg/mL] | minimum inhibitory concentration [8] [µg/mL] | minimum inhibitory concentration [9] [µg/mL] | minimum inhibitory concentration [10] [µg/mL] | minimum inhibitory concentration [11] [µg/mL]
Enterococcus faecalis IM1300 (strain group: non-starter strains) | 128 | 16 | 64 | 8 | 1 | 128 | 2 | 16 | 2 | 1 | 1
Bifidobacterium longum IM753 (strain group: human intestinal mucosa or faeces) | 64 | 64 | 512 | 2 | 0.12 | 128 |  | 0.12 | 0.125 | 0.5 | 16
Bifidobacterium adolescentis IM766 (strain group: human intestinal mucosa or faeces) | 128 | 256 | 1020 | 2 | 0.12 | > 256 |  | 0.12 | < 0.032 | 0.5 | 1
Levilactobacillus brevis IM1471 (strain group: starter cultures) | 2 | 1 | 64 | 8 | 0.5 | 16 |  | 16 | 8 | > 128 | 32
Bifidobacterium animalis subsp. lactis IM558 (strain group: probiotic strains) | > 256 | 256 | 512 | 2 | 0.25 | 128 |  | < 0.03 | 0.125 | 0.5 | 8
Lactococcus lactis IM1370 (strain group: starter cultures) | < 0.5 | < 0.5 | < 2 | 2 | 0.5 | 4 |  | 0.5 | 0.25 | < 0.25 | 0.25
Bifidobacterium adolescentis IM676 (strain group: human intestinal mucosa or faeces) | 16 | 32 | 256 | 2 | 0.12 | 32 |  | 0.06 | 0.063 | 0.5 | 16
Bifidobacterium adolescentis IM801 (strain group: human intestinal mucosa or faeces) | 64 | 64 | 512 | 2 | 0.12 | 256 |  | 0.06 | 0.063 | 0.5 | 1
Lactobacillus acidophilus IM1383 (strain group: probiotic strains) | 8 | 4 | 64 | 4 | 0.12 | 4 |  | 1 | 1 | 1 | 0.25
Lactobacillus gasseri IM854 (strain group: human milk or colostrum) | 16 | 4 | 128 | 4 | 0.25 | 16 |  | 8 | 1 | 1 | 2
Lactobacillus acidophilus IM1074 (strain group: non-starter strains) | 4 | 4 | 64 | 4 | 0.12 | 4 |  | 1 | 0.5 | 2 | 0.5
Bifidobacterium adolescentis IM776 (strain group: human intestinal mucosa or faeces) | 256 | 256 | 512 | 2 | 0.25 | 64 |  | 0.12 | 0.125 | 0.5 | 16
Bifidobacterium animalis subsp. lactis IM559 (strain group: probiotic strains) | 64 | 256 | 256 | 2 | 0.25 | 64 |  | < 0.03 | 0.25 | 0.5 | 8
Bifidobacterium animalis IM800 (strain group: human intestinal mucosa or faeces) | > 256 | 128 | 512 | 2 | 0.25 | 128 |  | 0.12 | 0.125 | 1 | 16
Streptococcus thermophilus IM1414 (strain group: starter cultures) | 4 | 2 | 32 | 2 | 0.12 | 16 |  | 0.06 | 0.25 | 0.5 | 0.5
Bifidobacterium adolescentis IM792 (strain group: human intestinal mucosa or faeces) | 256 | 128 | 512 | 2 | 0.12 | 64 |  | 0.06 | 0.125 | 0.5 | 16

Test System | minimum inhibitory concentration [1] [µg/mL] | minimum inhibitory concentration [2] [µg/mL] | minimum inhibitory concentration [3] [µg/mL] | minimum inhibitory concentration [4] [µg/mL] | minimum inhibitory concentration [5] [µg/mL] | minimum inhibitory concentration [6] [µg/mL] | minimum inhibitory concentration [7] [µg/mL] | minimum inhibitory concentration [8] [µg/mL] | minimum inhibitory concentration [9] [µg/mL] | minimum inhibitory concentration [10] [µg/mL] | minimum inhibitory concentration [11] [µg/mL]
Bifidobacterium adolescentis IM684 (strain group: human intestinal mucosa or faeces) | 256 | 128 | 512 | 2 | 0.25 | 128 |  | 4 | 0.125 | 0.5 | 16
Lacticaseibacillus rhamnosus IM827 (strain group: human milk or colostrum) | 4 | 4 | 64 | 8 | 0.25 | 16 |  | 1 | 4 | > 128 | 1
Lactococcus lactis IM1379 (strain group: starter cultures) | 2 | 1 | 8 | 4 | 1 | 32 |  | 0.5 | 0.5 | < 0.25 | 0.25
Lactobacillus delbrueckii subsp. bulgaricus IM354 (strain group: probiotic strains) | 8 | 4 | 64 | 2 | 0.5 | 16 |  | 0.25 | 0.25 | 0.5 | 2
Bifidobacterium bifidum IM1396 (strain group: probiotic strains) | 256 | 64 | 512 | 2 | 0.12 | 32 |  | 0.12 | 0.125 | 1 | 1
Lactococcus lactis IM44 (strain group: starter cultures) | 4 | 2 | 4 | 2 | 1 | 16 |  | 0.12 | 0.25 | 0.5 | 0.25
Ligilactobacillus salivarius IM845 (strain group: human milk or colostrum) | 4 | 4 | 128 | 2 | 0.25 | 32 |  | 0.12 | 2 | > 128 | 1
Streptococcus salivarius IM1353 (strain group: non-starter strains) | 1 | < 0.5 | < 2 | 2 | 0.25 | 2 |  | 0.12 | 0.125 | < 0.25 | 0.5
Lactiplantibacillus plantarum IM943 (strain group: human milk or colostrum) | 4 | 4 | 128 | 4 | 0.5 | 64 |  | 0.12 | 4 | > 128 | 32
Streptococcus thermophilus IM1413 (strain group: starter cultures) | 2 | < 0.5 | 4 | 2 | 0.06 | 4 |  | 0.06 | 0.063 | < 0.25 | 0.5
Lactobacillus gasseri IM825 (strain group: human milk or colostrum) | 16 | 2 | 64 | 2 | < 0.016 | 8 |  | 0.25 | 0.25 | 2 | 1
Bifidobacterium animalis IM1342 (strain group: probiotic strains) | 8 | 8 | 64 | < 0.12 | 0.25 | 32 |  | < 0.03 | 0.25 | 0.5 | 2
Lactococcus lactis IM1328 (strain group: non-starter strains) | 4 | 2 | 8 | 4 | 1 | 32 |  | 0.5 | 1 | 0.5 | 0.5
Bifidobacterium adolescentis IM677 (strain group: human intestinal mucosa or faeces) | > 256 | 64 | 512 | 1 | 0.12 | 128 |  | 0.12 | 2 | < 0.25 | 1
Bifidobacterium longum IM970 (strain group: human intestinal mucosa or faeces) | 64 | 32 | 256 | 0.5 | 0.06 | > 256 |  | 0.06 | < 0.032 | 1 | 0.5
